Among the data in article PMC9356023 are binding values, retold here.

The chains behind the UniProt entries cited, without tags or fusion partners.
UniProt O60678: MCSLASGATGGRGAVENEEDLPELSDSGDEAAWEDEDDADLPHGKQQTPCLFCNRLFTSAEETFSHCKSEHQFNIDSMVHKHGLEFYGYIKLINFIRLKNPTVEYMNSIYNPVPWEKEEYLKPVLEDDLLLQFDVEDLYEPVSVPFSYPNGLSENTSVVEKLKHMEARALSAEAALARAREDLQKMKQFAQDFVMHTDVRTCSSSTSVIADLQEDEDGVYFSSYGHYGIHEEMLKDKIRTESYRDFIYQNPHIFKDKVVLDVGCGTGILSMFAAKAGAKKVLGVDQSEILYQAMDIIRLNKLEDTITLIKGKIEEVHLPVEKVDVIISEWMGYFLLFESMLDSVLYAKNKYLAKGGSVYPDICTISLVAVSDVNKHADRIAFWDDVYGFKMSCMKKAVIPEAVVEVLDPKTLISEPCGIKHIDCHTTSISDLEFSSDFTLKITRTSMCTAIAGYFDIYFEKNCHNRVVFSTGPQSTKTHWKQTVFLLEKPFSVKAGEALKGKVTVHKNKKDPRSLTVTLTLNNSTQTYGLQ
UniProt Q6NZB1: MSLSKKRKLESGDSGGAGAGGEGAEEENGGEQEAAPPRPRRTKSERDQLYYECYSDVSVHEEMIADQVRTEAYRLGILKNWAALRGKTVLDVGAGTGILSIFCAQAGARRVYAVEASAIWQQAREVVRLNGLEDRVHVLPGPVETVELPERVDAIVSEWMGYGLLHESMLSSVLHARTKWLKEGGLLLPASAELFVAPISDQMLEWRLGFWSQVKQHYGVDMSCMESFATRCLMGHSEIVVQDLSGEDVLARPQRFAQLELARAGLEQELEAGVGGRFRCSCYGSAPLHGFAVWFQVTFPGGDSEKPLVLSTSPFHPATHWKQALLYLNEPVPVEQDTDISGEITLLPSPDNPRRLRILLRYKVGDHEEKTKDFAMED
UniProt Q9NR22: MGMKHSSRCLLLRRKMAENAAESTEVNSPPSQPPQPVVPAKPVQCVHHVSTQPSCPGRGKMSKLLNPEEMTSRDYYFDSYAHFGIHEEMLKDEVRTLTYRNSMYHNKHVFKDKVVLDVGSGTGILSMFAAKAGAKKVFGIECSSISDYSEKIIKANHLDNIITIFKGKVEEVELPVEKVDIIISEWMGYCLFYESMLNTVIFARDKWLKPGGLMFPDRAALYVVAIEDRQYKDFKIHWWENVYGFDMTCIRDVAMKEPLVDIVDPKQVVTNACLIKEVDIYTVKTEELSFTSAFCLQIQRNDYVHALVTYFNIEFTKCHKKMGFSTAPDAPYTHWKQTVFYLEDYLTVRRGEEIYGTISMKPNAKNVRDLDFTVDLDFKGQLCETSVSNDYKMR
UniProt Q9JIF0: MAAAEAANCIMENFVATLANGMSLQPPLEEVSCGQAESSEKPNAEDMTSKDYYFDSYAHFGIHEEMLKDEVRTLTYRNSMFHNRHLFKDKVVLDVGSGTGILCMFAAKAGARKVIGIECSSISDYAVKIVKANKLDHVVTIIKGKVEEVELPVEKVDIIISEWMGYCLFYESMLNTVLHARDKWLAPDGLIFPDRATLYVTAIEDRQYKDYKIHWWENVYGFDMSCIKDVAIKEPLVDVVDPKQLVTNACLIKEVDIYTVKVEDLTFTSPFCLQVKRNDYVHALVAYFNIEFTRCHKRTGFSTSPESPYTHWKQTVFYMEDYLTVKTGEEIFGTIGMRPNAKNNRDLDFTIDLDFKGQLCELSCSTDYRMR

Like-named read-outs stand apart in the source and are kept apart here. No constants are given. Whether binding was seen depends on the method and setting. In cells and extracts the contact can be indirect. Some results given as binding are weak or reduced against the parent protein; the word gives no strength. For some assays here: Sequences can lack the tags named with a protein.

Assay [1] deals with vascular endothelial growth factor receptor-2 (VEGFR-2), wild type (UniProt P35918). Description: co-IP; HEK-293 cells expressing VEGFR-2 transfected with c-Myc-tagged PRMT constructs, 48 h; with or without VEGF; whole cell lysate immunoprecipitated with anti-VEGFR-2 antibody, protein-A Sepharose, washed 4X with lysis buffer containing 1% SDS; blot with anti-c-Myc antibody.
The target in assay [2] is GST-Src-SH2 (UniProt P12931). Description: pull-down; GST-Src-SH2 immobilised on Glutathione Sepharose beads, incubated with whole cell lysates of serum-starved HEK-293 cells expressing wild-type or mutant VEGFR-2, unstimulated or stimulated with VEGF for 10 min; 3-4 h at 4°C; blot with anti-VEGFR-2 antibody; only the target purified.
Assay [3] has as its target GST-PRMT3 (UniProt O60678). In words: pull-down; GST-PRMTs immobilised on glutathione Sepharose beads, incubated with whole cell lysate of HEK-293 cells expressing VEGFR-2, 3-4 h at 4°C; blot with anti-VEGFR-2 antibody; only the target purified.
Assay [4] addresses GST-PRMT6 (UniProt Q6NZB1). Described as above.
For assay [5], the target named is T1, GST-PRMT7 (UniProt Q9NVM4).
T1 sequence: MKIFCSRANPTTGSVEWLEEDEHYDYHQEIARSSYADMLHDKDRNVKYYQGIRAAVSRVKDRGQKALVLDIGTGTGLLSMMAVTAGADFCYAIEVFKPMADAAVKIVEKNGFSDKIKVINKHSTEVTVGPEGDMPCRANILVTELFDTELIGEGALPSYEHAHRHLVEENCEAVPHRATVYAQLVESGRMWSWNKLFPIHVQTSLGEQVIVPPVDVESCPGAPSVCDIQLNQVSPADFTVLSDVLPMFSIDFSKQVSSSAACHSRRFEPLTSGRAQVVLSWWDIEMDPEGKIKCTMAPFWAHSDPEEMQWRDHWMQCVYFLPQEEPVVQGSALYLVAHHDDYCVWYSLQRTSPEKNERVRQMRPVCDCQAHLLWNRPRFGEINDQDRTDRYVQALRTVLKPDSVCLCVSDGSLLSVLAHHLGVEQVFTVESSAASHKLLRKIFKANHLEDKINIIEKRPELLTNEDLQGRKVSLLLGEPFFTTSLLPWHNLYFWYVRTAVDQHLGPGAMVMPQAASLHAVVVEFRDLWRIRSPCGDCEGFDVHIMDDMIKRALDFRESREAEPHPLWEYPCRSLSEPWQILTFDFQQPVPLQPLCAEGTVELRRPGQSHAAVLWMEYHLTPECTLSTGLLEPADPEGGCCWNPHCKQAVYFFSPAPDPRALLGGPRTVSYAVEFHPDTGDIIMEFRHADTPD
The assay is described as above.

Assay [6] addresses GST-PRMT8 (UniProt Q9NR22). The description is as above.
In assay [7] the target is GST-Src-SH2 (UniProt P12931). Description: pull-down; GST-Src-SH2 Glutathione Sepharose beads preincubated with Y820 unphosphorylated or Y820 phosphorylated peptide, then whole cell lysate of HEK-293 cells expressing wild-type VEGFR-2, unstimulated or stimulated with VEGF for 10 min; Western blot; only the target purified. (In western blotting, separated proteins are transferred to a membrane and probed.)

In assay [8] the target is vascular endothelial growth factor receptor-2 (VEGFR-2), wild type (UniProt P35918). Description: co-IP; HEK-293 cells expressing VEGFR-2 transfected with c-Myc-tagged PRMT constructs, 48 h; with or without VEGF; whole cell lysate immunoprecipitated with anti-VEGFR-2 antibody, protein-A Sepharose, washed 4X with lysis buffer containing 1% SDS; blot with anti-c-Myc antibody. This is another data set of the same source.

As for “PRMT1, C-terminus c-Myc-tagged (from UniProt Q9JIF0 1-371) (enzyme)”, the binding result in assay [1] is listed as “binds”. “PRMT6, C-terminus c-Myc-tagged (from UniProt Q6NZB1 1-378) (enzyme)”: the binding entry in assay [1] is on record as “binds”. Turning to “arginine 817 mutant VEGFR-2 (A817/VEGFR-2) (from UniProt P35918 20-1345) (receptor)”, in assay [2], the binding entry is on record as “binds”. Take “tyrosine 820 mutant VEGFR-2 (F820/VEGFR-2) (from UniProt P35918 20-1345) (receptor)”: in assay [2], the binding result was “no binding”. In the case of “vascular endothelial growth factor receptor-2 (VEGFR-2), wild type (from UniProt P35918 20-1345)”, the binding entry is listed as “binds weakly” in assay [3]; “binds weakly” in assay [4]; “binds weakly” in assay [5]; “binds weakly” in assay [6]; “binds” in assay [7]; “binds” in assay [2].

B1: PRMT4 N-terminal alone (PRMT4-1-142) (domain or fragment, UniProt Q9WVG6 1-142)
chain: MAAAAATAVGPGAGSAGVAGPGGAGPCATVSVFPGARLLTIGDANGEIQRHAEQQALRLEVRAGPDAAGIALYSHEDVCVFKCSVSRETECSRVGRQSFIITLGCNSVLIQFATPHDFCSFYNILKTCRGHTLERSVFSERT
In the case of B1, in assay [8], the binding entry is “binds”.
